# Measurements from article doi:10.1101/2022.10.03.510647 (bioRxiv, 2022).
# B1: C/EBPα^R35A-Flag (natural protein)
# chain: not shown
# Target: PU.1 (UniProt P17433 1-272)
# Experiment: co-IP
binder,measurement,value
B1,fold change of the co-precipitate against C/EBPα^WT,~2 fold
